# Assay results taken from the supplement of paper PMC10037445.
# Values joined by “and” are separate entries in the source; they are usually repeats but may differ in a detail not shown here. Equal values may be shown once. The full ranking holds about 2,900 compounds; the median of “IRF Lucia reporter activity, fold change vs agonist alone” is about 0.9, and the highest 2% start at about 2.8. Some of the results follow.
# How the values were obtained:
# RAW-Dual [1] = assay: IRF Lucia reporter activity, fold change vs agonist alone; cytotoxicity flag (confluency mask): not cytotoxic; higher = enhanced IRF activity
# How it was run: (§1)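 Library stock was pin-tooled at 50 nL into 384-well plates of RAW-Dual macrophages (50,000 cells/well, DMEM), followed 1 h later by a PRR agonist, and the cells were kept at 37 °C, 5% CO2. Supernatant collected after 20 hours was read for IRF by QuantiLuc luminescence and for NF-κB by QuantiBlue absorbance at 620 nm. Reporter activity is fold change over agonist-alone wells, and a well counted as cytotoxic when its IncuCyte confluency was below 70% of agonist controls in both mask sets.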
# RAW-Dual [2] = assay: IRF Lucia reporter activity, fold change vs agonist alone; higher = enhanced IRF activity; details: library stock concentration (final ~1000-fold dilution): 10 mM, agonist: MPLA (TLR4) […]
# How it was run: as §1
# RAW-Dual [3] = assay: IRF Lucia reporter activity, fold change vs agonist alone; cytotoxicity flag (confluency mask): cytotoxic (confluency <70% of control); higher = enhanced IRF activity
# How it was run: as §1
# [4] = agonist: 3'3'-cGAMP (STING) 10 ug/mL
# [5] = cytotoxicity flag (confluency mask): not cytotoxic
# [6] = cytotoxicity flag (confluency mask): cytotoxic (confluency <70% of control)
structure (smiles),measurement,setting,value
Cn1c(=O)cc(N2CCCC(N)C2)n(Cc2ccccc2C#N)c1=O (stereo not given) (library stock concentration (final ~1000-fold dilution): 10 mM),IRF Lucia reporter activity,RAW-Dual [1]; [4],1.02 and 1.03
same,IRF Lucia reporter activity,RAW-Dual [1]; agonist: LPS (TLR4) 0.1 ug/mL,1.34 and 1.02
CC(C)c1c(C(=O)Nc2ccccc2)c(-c2ccccc2)c(-c2ccc(F)cc2)n1CCC(O)CC(O)CC(=O)O (stereo not given) (library stock concentration (final ~1000-fold dilution): 10 mM),IRF Lucia reporter activity,RAW-Dual [1]; [4],0.637 and 0.34
same,IRF Lucia reporter activity,RAW-Dual [1]; agonist: LPS (TLR4) 0.1 ug/mL,0.968 and 0.706
O=[N+]([O-])c1cccc2cn[nH]c12,IRF Lucia reporter activity,RAW-Dual [2]; [5],1.11
O=[N+]([O-])c1cccc2cn[nH]c12 (library stock concentration (final ~1000-fold dilution): 10 mM),IRF Lucia reporter activity,RAW-Dual [1]; [4],0.999
same,IRF Lucia reporter activity,RAW-Dual [1]; agonist: LPS (TLR4) 0.1 ug/mL,0.953
CNC(=O)c1cc(Oc2ccc(NC(=O)Nc3ccc(Cl)c(C(F)(F)F)c3)c(F)c2)ccn1.O,IRF Lucia reporter activity,RAW-Dual [2]; [5],0.708
CNC(=O)c1cc(Oc2ccc(NC(=O)Nc3ccc(Cl)c(C(F)(F)F)c3)c(F)c2)ccn1.O (library stock concentration (final ~1000-fold dilution): 10 mM),IRF Lucia reporter activity,RAW-Dual [1]; [4],0.406
same,IRF Lucia reporter activity,RAW-Dual [1]; agonist: LPS (TLR4) 0.1 ug/mL,0.335
COc1ccccc1OCC(O)CN1CCN(CC(=O)Nc2c(C)cccc2C)CC1 (stereo not given) (library stock concentration (final ~1000-fold dilution): 10 mM),IRF Lucia reporter activity,RAW-Dual [1]; [4],1.08
same,IRF Lucia reporter activity,RAW-Dual [1]; agonist: LPS (TLR4) 0.1 ug/mL,0.973
COc1ccccc1OCC(O)CN1CCN(CC(=O)Nc2c(C)cccc2C)CC1 (stereo not given),IRF Lucia reporter activity,RAW-Dual [2]; [5],0.739
CCNC1=NC2C(OC(CO)C(O)C2O)S1 (stereo not given) (library stock concentration (final ~1000-fold dilution): 10 mM),IRF Lucia reporter activity,RAW-Dual [1]; [4],1.2
same,IRF Lucia reporter activity,RAW-Dual [1]; agonist: LPS (TLR4) 0.1 ug/mL,1.15
CCNC1=NC2C(OC(CO)C(O)C2O)S1 (stereo not given),IRF Lucia reporter activity,RAW-Dual [2]; [5],1.1
CCCNCC(O)COc1ccccc1C(=O)CCc1ccccc1 (stereo not given) (library stock concentration (final ~1000-fold dilution): 10 mM),IRF Lucia reporter activity,RAW-Dual [1]; [4],0.797
same,IRF Lucia reporter activity,RAW-Dual [1]; agonist: LPS (TLR4) 0.1 ug/mL,1.16
CCCNCC(O)COc1ccccc1C(=O)CCc1ccccc1 (stereo not given),IRF Lucia reporter activity,RAW-Dual [2]; [5],1.44
CC/C(=C(\c1ccccc1)c1ccc(OCCN(C)C)cc1)c1ccccc1.O=C(O)CC(O)(CC(=O)O)C(=O)O,IRF Lucia reporter activity,RAW-Dual [2]; [6],1.74
CC/C(=C(\c1ccccc1)c1ccc(OCCN(C)C)cc1)c1ccccc1.O=C(O)CC(O)(CC(=O)O)C(=O)O (library stock concentration (final ~1000-fold dilution): 10 mM),IRF Lucia reporter activity,RAW-Dual [3]; [4],0.806
same,IRF Lucia reporter activity,RAW-Dual [3]; agonist: LPS (TLR4) 0.1 ug/mL,0.269
CC(NC(=O)C(O)c1cc(F)cc(F)c1)C(=O)NC1C(=O)N(C)c2ccccc2-c2ccccc21 (stereo not given),IRF Lucia reporter activity,RAW-Dual [2]; [5],1.16
CC(NC(=O)C(O)c1cc(F)cc(F)c1)C(=O)NC1C(=O)N(C)c2ccccc2-c2ccccc21 (stereo not given) (library stock concentration (final ~1000-fold dilution): 10 mM),IRF Lucia reporter activity,RAW-Dual [1]; [4],1.02
same,IRF Lucia reporter activity,RAW-Dual [1]; agonist: LPS (TLR4) 0.1 ug/mL,0.915
CC(C)n1cc(-c2ccc3c(c2)N(C)CC3)c2c(NS(=O)(=O)c3ccn(C)n3)ccnc21 (library stock concentration (final ~1000-fold dilution): 10 mM),IRF Lucia reporter activity,RAW-Dual [1]; [4],1.05
same,IRF Lucia reporter activity,RAW-Dual [1]; agonist: LPS (TLR4) 0.1 ug/mL,0.988
Cl.Cl.NC1CCC(NC2CC2c2ccccc2)CC1 (stereo not given) (library stock concentration (final ~1000-fold dilution): 10 mM),IRF Lucia reporter activity,RAW-Dual [1]; [4],0.516
same,IRF Lucia reporter activity,RAW-Dual [1]; agonist: LPS (TLR4) 0.1 ug/mL,1.33
O=S(=O)(O)c1ccc2cc(N=Nc3cc(S(=O)(=O)O)c4cccnc4c3O)ccc2c1 (library stock concentration (final ~1000-fold dilution): 10 mM),IRF Lucia reporter activity,RAW-Dual [1]; [4],0.898
same,IRF Lucia reporter activity,RAW-Dual [1]; agonist: LPS (TLR4) 0.1 ug/mL,0.915
COc1cc2c(Oc3ccc4[nH]c(C)cc4c3F)ncnc2cc1OCCCN1CCCC1 (library stock concentration (final ~1000-fold dilution): 10 mM),IRF Lucia reporter activity,RAW-Dual [3]; [4],0.429
same,IRF Lucia reporter activity,RAW-Dual [3]; agonist: LPS (TLR4) 0.1 ug/mL,0.07
COc1cc2c(Oc3ccc4[nH]c(C)cc4c3F)ncnc2cc1OCCCN1CCCC1,IRF Lucia reporter activity,RAW-Dual [2]; [6],1.86
CCc1nn(CCCN2CCN(c3cccc(Cl)c3)CC2)c(=O)n1CCOc1ccccc1.Cl,IRF Lucia reporter activity,RAW-Dual [2]; [5],1.29
CCc1nn(CCCN2CCN(c3cccc(Cl)c3)CC2)c(=O)n1CCOc1ccccc1.Cl (library stock concentration (final ~1000-fold dilution): 10 mM),IRF Lucia reporter activity,RAW-Dual [1]; [4],0.663
same,IRF Lucia reporter activity,RAW-Dual [1]; agonist: LPS (TLR4) 0.1 ug/mL,1.59
CC12CCC3c4ccc(O)cc4CCC3C1CCC2OC(=O)CCC1CCCC1 (stereo not given) (library stock concentration (final ~1000-fold dilution): 10 mM),IRF Lucia reporter activity,RAW-Dual [3]; [4],0.744
same,IRF Lucia reporter activity,RAW-Dual [3]; agonist: LPS (TLR4) 0.1 ug/mL,1.3
CC12CCC3c4ccc(O)cc4CCC3C1CCC2OC(=O)CCC1CCCC1 (stereo not given),IRF Lucia reporter activity,RAW-Dual [2]; [6],1.23
COc1ccc(OC)c(C2C(C#N)=C(N)Oc3[nH]nc(-c4ccc5ccccc5c4)c32)c1 (stereo not given) (library stock concentration (final ~1000-fold dilution): 10 mM),IRF Lucia reporter activity,RAW-Dual [1]; [4],0.357
same,IRF Lucia reporter activity,RAW-Dual [1]; agonist: LPS (TLR4) 0.1 ug/mL,0.613
O=C1C[C@@H](c2ccc(O)cc2)Oc2cc(O)cc(O)c21 (library stock concentration (final ~1000-fold dilution): 10 mM),IRF Lucia reporter activity,RAW-Dual [1]; [4],0.163
same,IRF Lucia reporter activity,RAW-Dual [1]; agonist: LPS (TLR4) 0.1 ug/mL,0.257
Cc1ccc([N+](=O)[O-])cc1S(=O)(=O)N(C)C,IRF Lucia reporter activity,RAW-Dual [2]; [5],1.14
